# Values joined by “and” are separate entries in the source; they are usually repeats but may differ in a detail not shown here. Equal values may be shown once. Inconclusive results, whose numbers are uncertain, are shown with a selection of clear calls. Where the call is inconclusive, the potency comes from a doubtful curve fit. More than one record can exist for a structure, and the calls need not agree. Active and inactive are the calls of the source. Unless noted, calls come from the whole dose curve; as a rule, active = well fitted curve in the direction sought with a large enough effect in the repeat runs; inconclusive = weak or mixed curves; inactive = no such curve, though single readings can be large; an effect the other way counts as inactive or inconclusive.
# Legend:
# [1] = qHTS assay to identify small molecule agonists of the estrogen receptor beta (ER-beta) signaling pathway - cell viability counter screen (AID 1259380); note: nearly all actives have a fitted effect of over 30% in size
# Outline: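 Cells used were ER-beta-UAS-bla HEK293T in medium with 2% charcoal-stripped FBS. They were treated for 16 hr at 37C. Viability came from CellTiter-Glo luminescence.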
# [2] = qHTS assay to identify small molecule antagonists of the estrogen receptor beta (ER-beta) signaling pathway - cell viability counter screen (AID 1259382); note: nearly all actives have a fitted effect of over 55% in size
# Outline: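 Agonist-stimulated (1nM E2) ER-beta-UAS-bla HEK293T cells are incubated with library compounds for 16 hr at 37C. Cell viability is then assessed in the reporter-assay wells by adding CellTiter-Glo and reading luminescence after 30 min.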
# [3] = qHTS assay to identify small molecule agonists or antagonists of the thyroid stimulating hormone receptor (TSHR) signaling pathway - wild type cell line counter screen (AID 1259384; calls by dose curve); conditions: HEK293 wild type, cAMP HTRF counter-screen; cAMP activity change: at 92.4 µM (top of the series), stronger effect = higher value unless noted
# Outline: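 Wild-type Hek293 cells, 800/well, 18 h at 37C, then compound with Ro20-1724 for 30 min RT. cAMP by HTRF (cAMP-d2/anti-cAMP cryptate), 1 h RT, fluorescence read. 15 concentrations, triplicates.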
# [4] = target: Thyrotropin receptor (Homo sapiens) (UniProt P16473); test: qHTS assay to identify small molecule antagonists of the thyroid stimulating hormone receptor (TSHR) signaling pathway (AID 1259385; calls by dose curve; note: nearly all actives have a fitted effect of over 20% in size; for activity change, negative = inhibition: % is set by controls: 0 for no effect and ±100 for the full control effect); conditions: TSHR-HEK293 cAMP HTRF, TSH-stimulated antagonist mode; activity change, negative = inhibition: at 92.4 µM (top of the series) unless noted
# Sequence of UniProt P16473 (P16473 whole entry, looked up): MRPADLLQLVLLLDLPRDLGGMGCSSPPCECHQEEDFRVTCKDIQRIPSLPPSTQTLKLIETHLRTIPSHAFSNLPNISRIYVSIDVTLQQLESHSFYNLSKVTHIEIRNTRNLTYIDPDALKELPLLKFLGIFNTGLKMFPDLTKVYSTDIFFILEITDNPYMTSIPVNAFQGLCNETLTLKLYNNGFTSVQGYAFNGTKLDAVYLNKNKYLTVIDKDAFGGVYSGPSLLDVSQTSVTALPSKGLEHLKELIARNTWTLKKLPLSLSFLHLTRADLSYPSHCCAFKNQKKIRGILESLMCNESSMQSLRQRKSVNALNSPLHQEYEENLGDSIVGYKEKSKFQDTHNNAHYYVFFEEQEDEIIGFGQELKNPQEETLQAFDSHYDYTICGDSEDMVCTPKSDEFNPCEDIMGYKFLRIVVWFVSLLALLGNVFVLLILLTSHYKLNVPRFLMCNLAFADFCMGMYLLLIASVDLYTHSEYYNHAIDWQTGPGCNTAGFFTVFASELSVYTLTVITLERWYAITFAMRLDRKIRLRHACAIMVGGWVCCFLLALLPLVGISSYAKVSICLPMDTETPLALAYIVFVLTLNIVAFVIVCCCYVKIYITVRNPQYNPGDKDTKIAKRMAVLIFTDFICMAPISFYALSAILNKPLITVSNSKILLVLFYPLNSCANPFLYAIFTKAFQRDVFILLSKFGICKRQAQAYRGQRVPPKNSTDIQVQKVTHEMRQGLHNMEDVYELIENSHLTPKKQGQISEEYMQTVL
# Outline: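 TSHR-HEK293 cells (800/well) plated 18 h, then compounds with Ro20-1724 and TSH at 1.5 ng/mL final, 30 min at room temperature. cAMP quantified by HTRF (cAMP-d2/anti-cAMP-cryptate, 1 h); 15 concentrations in triplicate.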
# [5] = target: Progesterone receptor (Homo sapiens) (UniProt P06401); test: qHTS assay to identify small molecule agonists of the progesterone receptor (PR) signaling pathway (AID 1346784; calls by dose curve; note: nearly all actives have a fitted effect of over 30% in size; for activation: % is set by controls: 0 for no effect and ±100 for the full control effect); conditions: PR-UAS-bla HEK293T, beta-lactamase FRET ratio, 16 h; activation: at 92.4 µM (top of the series) unless noted
# Sequence of UniProt P06401 (P06401 whole entry, looked up): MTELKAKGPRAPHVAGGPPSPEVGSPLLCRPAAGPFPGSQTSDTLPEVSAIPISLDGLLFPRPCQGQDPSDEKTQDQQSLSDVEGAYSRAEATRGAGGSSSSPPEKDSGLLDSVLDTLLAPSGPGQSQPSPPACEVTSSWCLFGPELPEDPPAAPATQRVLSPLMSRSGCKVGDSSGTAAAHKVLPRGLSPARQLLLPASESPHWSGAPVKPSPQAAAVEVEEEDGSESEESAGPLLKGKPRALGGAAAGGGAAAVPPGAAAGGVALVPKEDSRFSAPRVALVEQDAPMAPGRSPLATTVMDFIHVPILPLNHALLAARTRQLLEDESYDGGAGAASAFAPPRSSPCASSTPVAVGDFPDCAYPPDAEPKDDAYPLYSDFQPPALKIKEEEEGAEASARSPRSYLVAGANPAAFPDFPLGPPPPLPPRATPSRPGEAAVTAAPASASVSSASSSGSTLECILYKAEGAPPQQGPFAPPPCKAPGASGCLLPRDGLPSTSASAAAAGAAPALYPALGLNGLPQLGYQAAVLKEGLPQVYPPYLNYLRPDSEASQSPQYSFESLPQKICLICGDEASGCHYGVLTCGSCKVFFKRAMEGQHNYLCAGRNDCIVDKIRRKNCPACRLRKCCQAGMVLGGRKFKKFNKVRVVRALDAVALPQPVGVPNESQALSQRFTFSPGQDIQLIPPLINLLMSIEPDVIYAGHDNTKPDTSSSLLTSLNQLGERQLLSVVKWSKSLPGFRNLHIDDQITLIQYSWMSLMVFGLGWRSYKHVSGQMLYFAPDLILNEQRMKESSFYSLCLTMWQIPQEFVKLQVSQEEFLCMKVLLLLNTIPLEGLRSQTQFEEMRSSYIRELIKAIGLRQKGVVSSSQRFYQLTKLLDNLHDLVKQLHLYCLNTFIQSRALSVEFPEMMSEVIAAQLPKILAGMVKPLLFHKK
# Outline: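 Agonist qHTS: compounds pinned onto 3,000 PR-UAS-bla HEK 293T cells per well in charcoal-stripped serum medium, 16hr at 37C, then beta-lactamase activity measured by LiveBLAzer FRET fluorescence after 2 hours at room temperature.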
# [6] = target: Progesterone receptor (Homo sapiens) (UniProt P06401); test: qHTS assay to identify small molecule antagonists of the progesterone receptor (PR) signaling pathway (AID 1346795; active = well fitted inhibition curve with a large enough effect in the signal ratio in the repeat runs, not every such curve was filed as active; inconclusive = weak or mixed curves; the % refers to the signal ratio; for activity change, negative = inhibition: % is set by controls: 0 for no effect and ±100 for the full control effect); conditions: PR-UAS-bla HEK293T, beta-lactamase FRET ratio, 16 h; activity change, negative = inhibition: at 92.4 µM (top of the series) unless noted
# Outline: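 Antagonist mode with agonist R5020 at 1 nM final and 16 hr incubation at 37C. Reporter was beta-lactamase driven by UAS in HEK293T (PR-UAS-bla), 2% charcoal-stripped serum; signal from LiveBLAzer FRET substrate, 2 hr at room temperature.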
# [7] = qHTS assay to identify small molecule agonists of the progesterone receptor (PR) signaling pathway - cell viability counter screen (AID 1346799; calls by dose curve; note: nearly all actives have a fitted effect of over 45% in size)
# Outline: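 Cytotoxicity measured by CellTiter-Glo luminescence (30 min, RT) in the same wells as the PR beta-lactamase agonist read. Those HEK293T cells had 16 h compound treatment at 37 C in 2% charcoal-stripped FBS medium.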
# [8] = qHTS assay to identify small molecule agonists of the TGF-beta/Smad signaling pathway - cell viability counter screen (AID 1346829); note: nearly all actives have a fitted effect of over 45% in size
# Outline: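 CellTiter-Glo luminescence readout; SBE-bla HEK 293T cells, overnight plating, compound 5 hr at 37 C/5% CO2, then bla substrate 2 hr RT, then CellTiter-Glo 30 min RT.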
# [9] = qHTS assay to identify small molecule antagonists of the TGF-beta/Smad signaling pathway (AID 1346924; active = well fitted inhibition curve with a large enough effect in the signal ratio in the repeat runs, not every such curve was filed as active; inconclusive = weak or mixed curves; the % refers to the signal ratio); conditions: SBE-bla HEK293T, TGF-beta/Smad reporter, beta-lactamase ratio; activity, negative = inhibition: at 76.8 µM (top of the series) unless noted
# Outline: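 SBE-bla HEK 293T cells were plated overnight, then received compound in DMSO plus TGF-beta1 (added as a 0.25 ng/mL solution) and were incubated 5 h at 37 C. Beta-lactamase reporter activity was read after 2 h at room temperature with LiveBLAzer B/G FRET substrate (ex 405, em 460/530 nm).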
# [10] = qHTS assay to identify small molecule antagonists of the progesterone receptor (PR) signaling pathway - cell viability counter screen (AID 1346798); note: nearly all actives have a fitted effect of over 50% in size
# Outline: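 Cytotoxicity read as CellTiter-Glo luminescence (30 min, room temperature) in the same wells as the beta-lactamase readout. HEK293T PR-UAS-bla cells in charcoal-stripped 2% FBS received compound and R5020, then 16 h at 37C, 5% CO2.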
# [11] = qHTS assay to identify small molecule antagonists of the TGF-beta/Smad signaling pathway - cell viability counter screen (AID 1346824); note: nearly all actives have a fitted effect of over 50% in size
# Outline: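 SBE-bla HEK 293T cells, incubated overnight, then compound plus 0.25 ng/mL TGF-beta1 (stock added) for 5 hr at 37 C. Viability was read in the same wells by CellTiter-Glo luminescence after 30 min at room temperature.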
# [12] = qHTS assay to identify small molecule agonists of the TGF-beta/Smad signaling pathway (AID 1346859; active = well fitted activation curve with a large enough effect in the signal ratio in the repeat runs, not every such curve was filed as active; inconclusive = weak or mixed curves; the % refers to the signal ratio); conditions: SBE-bla HEK293T, TGF-beta/Smad beta-lactamase reporter, 5 h; activation: at 76.8 µM (top of the series)
# Outline: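 Fluorescence (ex 405 nm; em 460 and 530 nm) was read 2 h after LiveBLAzer FRET substrate at RT. The preceding compound treatment of overnight-plated SBE-bla HEK293T cells lasted 5 h at 37 C.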
# [13] = Human pregnane X receptor (PXR) small molecule agonists, qHTS cell viability counter screen (AID 1346977); note: nearly all actives have a fitted effect of over 50% in size
# Outline: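 Same-well viability read: CellTiter-Fluor added after 23 hr compound exposure, fluorescence measured 1 hr later. Cells were PXR-Luc HepG2 seeded at 2,000/well in 5% charcoal-stripped FBS medium, rested 5 hr before dosing at 37 C.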
# [14] = target: Estrogen receptor (Homo sapiens) (UniProt P03372); test: qHTS assay to identify small molecule agonists of the estrogen receptor alpha (ER-alpha) signaling pathway in the presence of an antagonist (AID 1259383; calls by dose curve; note: nearly all actives have a fitted effect of over 15% in size)
# Sequence of UniProt P03372 (P03372 whole entry, looked up): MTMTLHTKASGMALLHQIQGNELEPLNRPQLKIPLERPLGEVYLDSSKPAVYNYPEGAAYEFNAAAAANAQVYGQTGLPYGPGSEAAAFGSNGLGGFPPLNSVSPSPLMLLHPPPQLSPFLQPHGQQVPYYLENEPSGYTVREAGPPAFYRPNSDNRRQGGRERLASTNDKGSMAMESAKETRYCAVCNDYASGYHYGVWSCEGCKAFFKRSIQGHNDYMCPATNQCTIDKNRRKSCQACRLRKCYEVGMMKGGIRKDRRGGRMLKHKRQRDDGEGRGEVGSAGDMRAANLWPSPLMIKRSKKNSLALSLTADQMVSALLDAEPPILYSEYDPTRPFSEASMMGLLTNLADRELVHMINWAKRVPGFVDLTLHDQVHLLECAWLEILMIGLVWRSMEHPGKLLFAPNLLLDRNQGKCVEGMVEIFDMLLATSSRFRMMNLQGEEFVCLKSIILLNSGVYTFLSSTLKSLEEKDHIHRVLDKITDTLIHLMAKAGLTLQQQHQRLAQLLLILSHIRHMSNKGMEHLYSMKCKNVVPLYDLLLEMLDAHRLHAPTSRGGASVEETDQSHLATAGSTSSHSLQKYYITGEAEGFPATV
# Outline: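 Using VM7Luc4E2 cells seeded 24hr before treatment, antagonist ICI-182,780 (10.0nM final) was added, followed by compounds at 15 concentrations. Plates incubated 22hr; ONE-Glo luminescence quantified reporter activity.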
# [15] = Caspase-3/7 induction in CHO-K1 cells by small molecules, qHTS cell viability counter screen (AID 1346979); note: nearly all actives have a fitted effect of over 35% in size
# Outline: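 Cytotoxicity counter screen: CellTiter-Fluor added to compound-treated wild-type CHO-K1 cells at 16 h (37C, 5% CO2), fluorescence measured 1 h later; same wells as caspase-3/7 measurement.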
# [16] = Caspase-3/7 induction in CHO-K1 cells by small molecules, qHTS assay (AID 1346980); note: nearly all actives have a fitted effect of over 15% in size
# Outline: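 Wild-type CHO-K1 cells exposed to compounds for 17hr at 37 C, 5% CO2. Caspase-3/7 activity then measured by Caspase-Glo 3/7 luminescence after 30min at room temperature.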
# Potency is the fitted concentration of half-maximal effect; tags give direction and shape of the fitted curve or compound fluorescence and quenching.
structure (smiles),measurement,setting,value
CN(C)c1ccc(N)cc1,Potency,[1],active: 11.9 µM
same,Potency,[2],"inconclusive: 13.4 µM [cytotoxic, full curve]"
same,Potency,[3],inconclusive: 42.2 µM
same,Potency,[4],"inconclusive: 47.4 µM [falling, partial curve]"
same,activation,[5],inconclusive: 0.228%
same,"activity change, negative = inhibition",[6],inconclusive: -50.9%
same,Potency,[7],"inconclusive: 75.1 µM [cytotoxic, single point]"
same,Potency,[8],inconclusive: 60.2 µM [cytotoxic]
same,"activity, negative = inhibition",[9],inconclusive: -13.9%
Brc1cccc(-c2ccccc2)c1,Potency,[1],inactive
C[C@H]1O[C@@H](O[C@H]2[C@@H](O)C[C@H](O[C@H]3[C@@H](O)C[C@H](O[C@H]4CC[C@@]5(C)[C@H](CC[C@@H]6[C@@H]5CC[C@]5(C)[C@@H](C7=CC(=O)OC7)CC[C@]65O)C4)O[C@@H]3C)O[C@@H]2C)C[C@H](O)[C@@H]1O,Potency,[1],active: 43.5 nM and active: 47.3 nM
same,Potency,[2],active: 30.8 nM and active: 42.2 nM
same,Potency,[4],"inconclusive: 0.275 µM [falling, full curve]"
same,"activity change, negative = inhibition",[4],inconclusive: -16.9% [at 42.5 µM]
same,Potency,[6],inconclusive: 308 nM [full curve] and inconclusive: 237 nM [full curve]
same,Potency,[10],active: 38.8 nM and active: 94.4 nM
same,Potency,[7],active: 77.4 nM and active: 237 nM
same,Potency,[11],"inconclusive: 4.9 nM [cytotoxic, full curve] and inconclusive: 13.4 nM [cytotoxic, full curve]"
same,Potency,[8],"inconclusive: 5.5 nM [cytotoxic, full curve] and inconclusive: 15.1 nM [cytotoxic, full curve]"
same,Potency,[12],"inconclusive: 98.3 nM [rising, full curve] and inconclusive: 95.2 nM [rising, full curve]"
same,Potency,[9],"inconclusive: 0.0301 µM [rising, full curve]"
same,Potency,[13],"inconclusive: 5.5 nM [cytotoxic, full curve] and inconclusive: 53.1 nM [cytotoxic, full curve]"
c1ccc(Nc2ccc3ccccc3c2)cc1,Potency,[1],"active: 68.2 µM and inconclusive: 68.6 µM [cytotoxic, single point]"
same,Potency,[2],"inconclusive: 68.2 µM [cytotoxic, single point] and inconclusive: 61.1 µM [cytotoxic, partial curve, poor fit]"
same,Potency,[14],"inconclusive: 17.1 µM [activator, partial curve]"
same,"activity change, negative = inhibition",[4],inconclusive: 7.09%
same,Potency,[6],inconclusive: 13.6 µM [full curve] and active: 17.2 µM
same,Potency,[7],"inconclusive: 61.1 µM [rising, partial curve]"
same,Potency,[13],"inconclusive: 70.8 µM [cytotoxic, single point]"
same,Potency,[15],inconclusive: 68.2 µM [cytotoxic]
OC(c1ccccc1)(c1ccccc1)C1CCNCC1,Potency,[1],inactive
ClC1=C(Cl)[C@]2(Cl)[C@H]3[C@H]([C@@H]4C=C[C@H]3C4)[C@@]1(Cl)C2(Cl)Cl,Potency,[1],"inconclusive: 68.5 µM [cytotoxic, single point] and active: 61.1 µM"
same,Potency,[2],"inconclusive: 77 µM [cytotoxic, single point]"
same,"activity change, negative = inhibition",[4],inconclusive: -9.18%
same,Potency,[5],"inconclusive: 68.6 µM [cytotoxic, single point]"
same,Potency,[6],active: 21.7 µM
same,"activity change, negative = inhibition",[6],inconclusive: -38.2%
same,Potency,[10],"inconclusive: 77 µM [cytotoxic, single point]"
same,Potency,[7],"inconclusive: 68.6 µM [cytotoxic, single point]"
same,Potency,[8],active: 49 µM
same,Potency,[12],"inconclusive: 61.6 µM [rising, single point]"
same,Potency,[13],"inactive and inconclusive: 77 µM [cytotoxic, partial curve, poor fit]"
same,Potency,[15],"inconclusive: 68.5 µM [cytotoxic, single point] and inconclusive: 68.6 µM [cytotoxic, single point]"
same,Potency,[16],"inconclusive: 76.8 µM [activator, single point] and inconclusive: 68.6 µM [activator, single point]"
O=C1C(I)=CC(=C(c2cc(I)c(O)c(I)c2)c2ccccc2C(=O)O)C=C1I,Potency,[1],active: 9.44 µM
same,Potency,[2],"inconclusive: 11.9 µM [cytotoxic, full curve, poor fit]"
same,Potency,[4],inactive
same,Potency,[6],active: 29.8 µM
same,Potency,[10],"inconclusive: 8.41 µM [rising, full curve]"
same,Potency,[7],"inconclusive: 11.9 µM [rising, full curve, poor fit]"

# Source: PubChem BioAssay (Tox21)
